Laboratory results reported in PubChem BioAssay AID1347073 (National Center for Advancing Translational Sciences (NCATS), 2019).
Out of some 45,000 compounds screened, about 200 (0.44%) were called active. Another 7% or so got no clear call; they are omitted. Calls follow the shape of the dose curve; as a rule, active = well fitted activation curve with a large enough effect; inconclusive = small, poorly fitted or top-dose-only effect; inactive = no such curve, though single readings can be large or run the other way. This is one part of the list.

experiment: qHTS of TDP-43 Inhibitors: NCGC Sytravon Library Screen; conditions: yeast TDP-43 toxicity rescue, BacTiter-Glo growth, 24 h; series mostly up to 46.1 µM; growth rescue (activation): at the top concentration; also: 0% is about no effect; nearly all actives have a fitted effect of over 55% in size
Method in brief: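 TDP-43-expressing yeast, pregrown in raffinose, seeded at OD600 0.02 in galactose medium with compound for 24 hr at 30 deg C. Growth read by BacTiter-Glo luminescence, so rescue of toxicity appears as activation.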

Compound | growth rescue (activation)
Cc1cc(N=Cc2c(O)n(-c3cccc(Cl)c3)c(=O)c3ccccc23)no1 | inactive: 10.1%
O=C(NNC(=O)C12CC3CC(CC(C3)C1)C2)c1ccccc1[N+](=O)[O-] | inactive: -2.04%
O=C(COc1ccccc1[N+](=O)[O-])NCCC1=CCCCC1 | inactive: 25.1%
O=C(CSc1ccc([N+](=O)[O-])cc1)Nc1nnc(C2CC2)s1 | inactive: -5.79%
COc1cc(/C=C/C(=O)O)cc(S(=O)(=O)Nc2ccccc2Cl)c1OC | inactive: -1.01%
CN1N=C(C(=O)Nc2ccc3c(c2)CCC3)CCC1=O | inactive: 3.32%
O=C(CSc1ncn[nH]1)NCCc1ccc(Cl)cc1Cl | inactive: 11.9%
CCOC(=O)/C=C/C(=O)Nc1ccc(S(=O)(=O)Nc2cc(C)on2)cc1 | inactive: 2.97%
Cc1c(C(N)=O)sc2ncn(CC(=O)N(C)C3CCCCC3)c(=O)c12 | inactive: 0.0385%
CCCC(=O)Nc1ccc(NC(=O)C2CC2)cn1 | inactive: 1.02%
CC(=O)Nc1c(C)nn(C(C)=O)c1C | inactive: 15.7%
Cn1c(NCc2c[nH]c3ccccc23)nc2ccccc21 | inactive: 20.7%
CCOc1cc(C2c3c(oc4ccccc4c3=O)C(=O)N2c2ccccn2)ccc1O (stereo unspecified) | inactive: 7.15%
Cc1cc(Nc2ncc(Cl)cc2Cl)n(-c2ccccn2)n1 | inactive: 3.2%
COc1ccc(C(=O)C2CCCN(S(=O)(=O)c3cccc(C)c3)C2)c(C)c1 (stereo unspecified) | inactive: 8.5%
COc1ccccc1/C=N/NC(=O)CO | inactive: 3.44%
CNC(=O)c1c2c(nc3ccc(Br)cc13)CCCC2 | inactive: 10.2%
CCCCCCn1c(N2CCN(c3cccc(Cl)c3)CC2)nc2c1c(=O)[nH]c(=O)n2C | inactive: 15.3%
COc1ccc(OC)c(Nc2nc(NCCCN(C)C)nc(N)c2[N+](=O)[O-])c1 | inactive: -4.64%
CC1(C(=O)NS(=O)(=O)c2cccc(C#N)c2)CCN1C(=O)c1ccc(C2CCCCC2)cc1 (stereo unspecified) | inactive: 19.7%
Cn1c(=O)c2cn(-c3cccc4ccccc34)cc2n(C)c1=O | inactive: 18.1%
CC(Oc1ccc(C(=O)c2ccccc2)cc1)C(=O)Nc1ccc(S(N)(=O)=O)cc1 (stereo unspecified) | inactive: 32.3%

Compound | growth rescue (activation)
O=C1CC(c2ccccc2)CC(O)=C1C=Nc1cccc(Cl)c1 (stereo unspecified) | inactive: -86.8%
O=C(CC(=O)Nc1ccccc1[N+](=O)[O-])Nc1ccccc1[N+](=O)[O-] | inactive: -9.79%
CCN(CC)CCCNC(=O)c1cc(Nc2ccc(OC)cc2)nc2ccccc12 | inactive: -2.68%
CCc1c(C)nc(SCCOc2ccc(OC(C)C)cc2)[nH]c1=O | inactive: 29.5%
O=C(O)c1cccc(NC(=O)c2cccc(S(=O)(=O)N3CCc4ccccc43)c2)c1 | inactive: -2.8%
CCn1c(O)c(C=Nc2ccccc2)sc1=S | inactive: 0.117%
CS(=O)(=O)N1CCN(c2ccc(NC(=S)NC(=O)c3ccccc3[N+](=O)[O-])cc2)CC1 | inactive: 5.77%
C/C(CC(=O)Nc1ccc(C)c(Cl)c1)=N\NC(=O)Cc1ccccc1 | inactive: 7.98%
CCC(C)NC(=O)C1CCN(S(=O)(=O)N2CCC3(CC2)OCCO3)CC1 (stereo unspecified) | inactive: 5.17%
C/C(N)=C(/C#N)C(=O)COC(=O)COc1ccc(Cl)cc1 | inactive: -2.59%
CC1=C(C(=O)N2CCOCC2)C(c2ccc(C)cc2)NC(=S)N1 (stereo unspecified) | inactive: 0.155%
O=C1OCCC1Sc1nnc(-c2cccnc2)n1-c1ccccc1F (stereo unspecified) | inactive: -3.31%
CC1(c2ccc(Cl)cc2)NC(=O)N(CC(=O)NC2CCCCC2)C1=O (stereo unspecified) | inactive: -6.33%
CC(C)(C)NC(=O)c1ccc2c(c1)C1C3CCC(C3)C1C(c1ccccc1)N2 (stereo unspecified) | inactive: 30.2%
COc1cc2c(cc1OC)-c1cc(Nc3ccccc3Br)nc(=O)n1CC2 | inactive: 25%
COc1ccc(CCNC(=O)CNC(=O)Cn2cnc3sc(C)c(C)c3c2=O)cc1OC | inactive: -1.8%
O=C(O)CCc1ccc(S(=O)(=O)Nc2ccccc2C(=O)NCCc2ccccc2)cc1 | inactive: -2.41%
CCOC1=NN(c2ccccc2)C(=O)/C1=C\N(C)C | inactive: -7.82%
Clc1ccc(-c2csc(N/N=C\c3cccnc3)n2)cc1 | inactive: 20.6%
Cc1ccc(-n2c(SCC(=O)NCc3ccc4c(c3)OCO4)nnc2-c2cccnc2)c(C)c1 | inactive: 32.9%
Cc1sc2ncn(CC(=O)NCCCN3CCC(C)CC3)c(=O)c2c1S(=O)(=O)N1CCC(C)CC1 | inactive: 11.6%
O=C(O)CN1C(=O)/C(=C\c2ccc(OC(=O)c3ccco3)cc2)SC1=S | inactive: 10.5%

Compound | growth rescue (activation)
O=C(O)CNc1ccc(S(=O)(=O)C(F)(F)F)cc1[N+](=O)[O-] | inactive: -36.9%
Cc1cc(C)nc(N/N=C/C=C/c2ccccc2)n1 | inactive: 27.7%
CCc1ccc(CN(C)C(=O)C2CCC(=O)N(CCCN3CCCC3=O)C2)cc1 (stereo unspecified) | inactive: 6.4%
O=C1CN(C(=O)CSc2nc(-c3ccccc3)cs2)c2ccccc2N1 | inactive: 9.69%
Cc1ccc(C(=O)NCCNC(=O)COc2ccc(Cl)cc2)cn1 | inactive: -4.13%
Cc1ccc(O)c(NC(=O)C2CC(c3cccc(Br)c3)=NO2)c1 (stereo unspecified) | inactive: 8.08%
O=C(CNc1cccc2ccccc12)c1ccc([N+](=O)[O-])cc1 | inactive: 19.4%
CCc1nnc(NC(=O)CS(=O)(=O)Cc2ccccc2)s1 | inactive: 11.9%
COCCCNC(=O)C(=O)NC1CCCCCC1 | inactive: -5.14%
O=C(O)c1ccccc1-c1ccccc1C(=O)NNc1ccc([N+](=O)[O-])cc1 | inactive: 4.18%
Cc1ccc2occ(C(c3nnnn3Cc3ccccc3)N3CCOCC3)c(=O)c2c1 (stereo unspecified) | inactive: 14.7%
CCC(=O)N1CCN(c2ccccc2NC(=O)c2ccc([N+](=O)[O-])o2)CC1 | inactive: 21.6%
COc1ccccc1/C=C/C(=O)OCCN1CCOCC1 | inactive: 22.9%
CCOc1ccc(CCNC(=O)c2nnc(CS(=O)(=O)c3ccccc3)o2)cc1OCC | inactive: -8.33%
CCOCCCNC(=O)c1ccc(N2CCCC2)c(NS(=O)(=O)c2ccc(C)cc2)c1 | inactive: 3.49%
CCc1ccc(C(=O)NC(CCSC)C(=O)O)cc1 (stereo unspecified) | inactive: 7.57%
COc1ccc(C(=O)C2CCN(CC(=O)Nc3cc(C)cc(C)c3)CC2)cc1 | inactive: -19.5%
CCOc1ccc(-n2c(C)cc(/C=N\NC(=O)CC(=O)NC3CCCCC3)c2C)cc1 | inactive: 22.3%
Cc1cc(NS(=O)(=O)c2ccc(NC(=O)/C=C/c3ccc(Br)cc3)cc2)no1 | inactive: 16.3%
CC(C)c1cc(NC(=O)c2ccccc2)cc(C(C)C)c1O | inactive: 9.82%
CSc1ccc(CN2CCN(C(=O)c3ccncc3)CC2)cc1 | inactive: -26.7%
Cc1cc(C)n(/C(=C\N(C)C)C(=O)c2ccc(Cl)cc2)n1 | inactive: 10.4%

Compound | growth rescue (activation)
Cc1ccc(CN2CCCC2(C)C(=O)NC(C)C)cc1 (stereo unspecified) | inactive: 6.2%
O=C(Nc1ccc2nc3ccccc3nc2c1)c1ccccc1 | inactive: -20.7%
CCCn1c(SCC(=O)C(C)(C)C)nc2ccccc21 | inactive: -1.83%
CN(Cc1cnccn1)C(=O)CC1C(=O)NCCN1CC(c1ccccc1)c1ccccc1 (stereo unspecified) | inactive: -7.42%
CCOC(=O)c1ccc(NC(=S)NCc2cccnc2)cc1 | inactive: 5.84%
Cc1cccc2c(N=NC(=O)C(C)n3cnc4ccccc4c3=O)c(O)[nH]c12 (stereo unspecified) | inactive: -31.4%
CCCCN=C1NN=C(c2ccc3c(c2)OCCO3)CS1 | inactive: 26.1%
COc1ccc(S(=O)(=O)NC(Cc2cnc[nH]2)C(=O)O)cc1 (stereo unspecified) | inactive: -1.89%
CC(=O)Nc1ccc(NC(=O)C2CC(=O)N(Cc3ccccc3)C2)cc1 (stereo unspecified) | inactive: 11.8%
O=C(O)c1cccc(Nc2cc(Cl)c3nonc3c2[N+](=O)[O-])c1 | inactive: -17.1%
O=C(NCc1cc(Cl)cc(Cl)c1)c1csc(COCCO)n1 | inactive: 12.6%
Cc1ccc(C(=O)CC2C(=O)N(c3ccccc3)C(=S)N2c2ccccc2)cc1 (stereo unspecified) | inactive: -11.4%
CCOC(=O)CCC(NC(=O)c1ccccc1C(=O)NC(CCC(=O)OCC)C(=O)OCC)C(=O)OCC (stereo unspecified) | inactive: 0.477%
Cc1ccc(OCCCCN(C)Cc2ccccc2)c(Br)c1 | inactive: -18%
Cc1ccc(NC(=O)COC(=O)[C@H](C)NC(N)=O)c(C)c1 | inactive: -7.74%
Cc1ccn(-c2ccc(NC(=O)c3cccs3)cc2)n1 | inactive: -36.1%
CCCCNC(=O)c1ccc2nc(CC)c(N(C)Cc3cccs3)n2c1 | inactive: 8.68%
O=C(COc1cccc(Br)c1)N/N=C/C(=O)c1ccccc1 | inactive: 8.11%
COc1ccccc1NC(=O)c1sc2ncn(Cc3cccc4ccccc34)c(=O)c2c1C | inactive: -15.2%
O=C(Nc1nc2ccccc2[nH]1)c1cccc(Br)c1 | inactive: 3.65%
O=C(NC(C(=O)N/N=C/c1cccnc1)c1n[nH]c(=O)c2ccccc12)c1ccccc1 (stereo unspecified) | inactive: 13%
O=C(NC1CCN(Cc2ccccc2)CC1)c1cc(S(=O)(=O)Nc2ccc(F)cc2)ccc1Cl | inactive: -3.06%

Compound | growth rescue (activation)
O=C(O)CCCn1cc(NC(=O)COc2cc(F)ccc2[N+](=O)[O-])cn1 | inactive: -1.24%
O=C(OCc1nc2scc(-c3ccccc3)c2c(=O)[nH]1)c1cc(Cl)ccc1[N+](=O)[O-] | inactive: 10.2%
CC1CN(c2nc3ccccc3nc2C(C#N)C(=O)NCc2ccc3c(c2)OCO3)CC(C)O1 (stereo unspecified) | inactive: -13.2%
CC(=O)Nc1ccc(NC(=O)C/C(C)=N/NC(=O)C(=O)Nc2ccc(C)c(Cl)c2)cc1 | inactive: -7.22%
CN(C)CCCOc1ccc(-c2cccc3nncn23)cn1 | inactive: -0.0634%
CCN1/C(=C/C=C2/SC(=Nc3cccc4ncccc34)N(C)C2=O)Sc2ccccc21 | inactive: 13.3%
Cc1cc(CN(C)C(=O)CC2C(=O)NCCN2Cc2ccc(F)c(F)c2)on1 (stereo unspecified) | inactive: 1.92%
NC(=O)CSc1nnc(CSc2ncccn2)n1-c1ccccc1 | inactive: 8.34%
NC(=O)c1nsc(C(=O)N(c2ccccc2)C(C(=O)NCC2CCCO2)c2cccs2)c1N (stereo unspecified) | inactive: 9.03%
COc1ccc(N(CC(=O)NC2CC3CCC2C3)S(=O)(=O)c2ccccc2)cc1Cl (stereo unspecified) | inactive: 8.12%
COc1ccc(NC(=O)C(NC(=O)c2ccc(=O)[nH]c2)c2ccc(C)cc2)cc1 (stereo unspecified) | inactive: 0.463%
O=C(CCS(=O)(=O)c1ccccc1)Nc1nncs1 | inactive: 6.65%
CC(=O)Nc1ccc2nc(SCC(=O)NCCOc3ccccc3)sc2c1 | inactive: 1.03%
O=C(NCc1ccc(F)c(F)c1)C1CCC(=O)N(CC2CCCCC2)C1 (stereo unspecified) | inactive: 6.2%
C/C(=N\Nc1ccc([N+](=O)[O-])cc1)c1ccc(O)cc1 | inactive: 2.51%
COc1ccc(CCN(C)C(=O)CNC(=O)c2ccccc2F)cc1OC | inactive: -21%
CC(C)(C)C(=O)Nc1ccc(C(=O)N/N=C/c2ccccc2OC(=O)c2ccccc2)cc1 | inactive: 1.03%
O=C(CN1C(=O)NC2(CCCC2)C1=O)Nc1ccccc1 | inactive: 10.1%
